{
  "source": "the supplement of paper PMC4604168 (melanoma cell lines)",
  "note": "The list shows a part of the results. Most values come without repeats; read them as rough.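 Further: cells treated in 1,536-well plates, then fixed and DAPI-stained, with nuclei counted from automated high-throughput microscope images.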",
  "data": [
    {"system": "COLO792", "assay": "cell count relative to DMSO control; melanoma cells; higher = more viable cells", "conditions": "library dose: standard library concentration; 72 h", "units": {"cell count": "%"}, "values": [
      {"smiles": "O=c1[nH]nc(Sc2ncc([N+](=O)[O-])s2)n1-c1ccc2c(c1)OCCO2", "note": "+ Cc1nc(Nc2ncc(C(=O)Nc3c(C)cccc3Cl)s2)cc(N2CCN(CCO)CC2)n1 [dasatanib] (first compound 1 µM, partner dose 0.02 µM)", "cell count": 45.7},
      {"smiles": "O=C(O)c1ccc(-c2c[nH]c3ncc(-c4ccccc4)cc23)cc1C1CCCC1", "note": "+ O=S(=O)(c1ccccc1)N(CC(F)(F)F)c1ccc(C(O)(C(F)(F)F)C(F)(F)F)cc1 [T0901317] (first compound 0.8 µM, partner dose 7 µM)", "cell count": 92},
      {"smiles": "Cn1cncc1[C@@](N)(c1ccc(Cl)cc1)c1ccc2c(c1)c(-c1cccc(Cl)c1)cc(=O)n2C", "note": "[tipifarnib] + CN(NC(=O)CC(=O)NN(C)C(=S)c1ccccc1)C(=S)c1ccccc1 [STA4783] (first compound 0.05 µM, partner dose 0.03 µM)", "cell count": 10.5},
      {"smiles": "O=c1[nH]nc(Sc2ncc([N+](=O)[O-])s2)n1-c1ccc2c(c1)OCCO2", "note": "+ COc1ccc(-c2ccc3c(N4CCOCC4)nc(N4C[C@@H](C)O[C@@H](C)C4)nc3n2)cc1CO [KU0063794] (first compound 1 µM, partner dose 0.1 µM)", "cell count": 79.7},
      {"smiles": "Cn1cncc1[C@@](N)(c1ccc(Cl)cc1)c1ccc2c(c1)c(-c1cccc(Cl)c1)cc(=O)n2C", "note": "[tipifarnib] + CN(C)S(=O)(=O)c1ccc2c(c1)/C(=C/c1cc3c([nH]1)CCCC3)C(=O)N2 [SU6656] (first compound 0.05 µM, partner dose 2 µM)", "cell count": 60.3},
      {"smiles": "O=C(Nc1cccc(Cl)c1)Nc1ncc(CCNc2ncnc3ccsc23)s1", "note": "+ O=C(O)c1ccc(-c2c[nH]c3ncc(-c4ccccc4)cc23)cc1C1CCCC1 [GSK650394] (first compound 0.004 µM, partner dose 0.8 µM)", "cell count": 42.7},
      {"smiles": "O=c1[nH]nc(Sc2ncc([N+](=O)[O-])s2)n1-c1ccc2c(c1)OCCO2", "note": "+ C#Cc1cccc(Nc2ncnc3cc(OCCOC)c(OCCOC)cc23)c1 [erlotinib] (first compound 1 µM, partner dose 4 µM)", "cell count": 58.2},
      {"smiles": "O=c1[nH]nc(Sc2ncc([N+](=O)[O-])s2)n1-c1ccc2c(c1)OCCO2", "note": "+ C[C@@H](N)c1ccc(C(=O)Nc2ccnc3[nH]ccc23)cc1 [RKI983] (first compound 1 µM, partner dose 2 µM)", "cell count": 61.3},
      {"smiles": "COc1cc(Nc2ncc(F)c(Nc3ccc4c(n3)NC(=O)C(C)(C)O4)n2)cc(OC)c1OC", "note": "[Tamatinib] + CC(C)(C)c1cnc(CSc2cnc(NC(=O)C3CCNCC3)s2)o1 [SNS-032] (first compound 2 µM, partner dose 0.05 µM)", "cell count": 49.7},
      {"smiles": "O=c1[nH]nc(Sc2ncc([N+](=O)[O-])s2)n1-c1ccc2c(c1)OCCO2", "note": "+ NCC(=O)Nc1ccc(-n2nc(C(F)(F)F)cc2-c2ccc3c(ccc4ccccc43)c2)cc1 [OSU03012] (first compound 1 µM, partner dose 5 µM)", "cell count": 99.1},
      {"smiles": "O=c1[nH]nc(Sc2ncc([N+](=O)[O-])s2)n1-c1ccc2c(c1)OCCO2", "note": "+ CN(NC(=O)CC(=O)NN(C)C(=S)c1ccccc1)C(=S)c1ccccc1 [STA4783] (first compound 1 µM, partner dose 0.03 µM)", "cell count": 15.8},
      {"smiles": "C[C@@H]1CCN(C(=O)CC#N)C[C@@H]1N(C)c1ncnc2[nH]ccc12", "note": "+ O=C(Nc1ccccc1)c1cc([N+](=O)[O-])ccc1Cl [GW9662] (first compound 5 µM, partner dose 10 µM)", "cell count": 86.4},
      {"smiles": "O=c1[nH]nc(Sc2ncc([N+](=O)[O-])s2)n1-c1ccc2c(c1)OCCO2", "note": "+ NC1(c2ccc(-c3nc4ccn5c(=O)[nH]nc5c4cc3-c3ccccc3)cc2)CCC1 [MK2206] (first compound 1 µM, partner dose 2 µM)", "cell count": 58},
      {"smiles": "C[C@@H]1CCN(C(=O)CC#N)C[C@@H]1N(C)c1ncnc2[nH]ccc12", "note": "+ O=C(O)c1ccc(-c2c[nH]c3ncc(-c4ccccc4)cc23)cc1C1CCCC1 [GSK650394] (first compound 5 µM, partner dose 0.8 µM)", "cell count": 90.3},
      {"smiles": "CC1(C)NC(=O)N(c2ccc([N+](=O)[O-])c(C(F)(F)F)c2)C1=O", "note": "[nilutamide] + O=C(O)c1ccc(-c2c[nH]c3ncc(-c4ccccc4)cc23)cc1C1CCCC1 [GSK650394] (first compound 5 µM, partner dose 0.8 µM)", "cell count": 64.2}
    ]}
  ]
}
